Laboratory results taken from PubChem BioAssay (NCATS).
Several values for one entry are separate records, joined by “and”; a condition that tells them apart may be missing. Identical values can stand only once. Inconclusive results, whose numbers are uncertain, are shown with a selection of clear calls. Potencies beside an inconclusive call are fits to weak or partial responses and may not hold up. Activity calls are given as the source filed them. Calls follow the shape of the dose curve; as a rule, active = well fitted curve in the direction sought with a large enough effect; inconclusive = small, poorly fitted or top-dose-only effect, or another doubt; inactive = no such curve, though single readings can be large; an effect the other way counts as inactive or inconclusive.

Columns and labels:
Es-2 = assay: Primary qHTS to identify gynecologic anti-cancer compounds using libraries of approved drugs and bioactive compounds (AID 1345084); conditions: Gynecologic cancer cell panel viability, ATPlite luminescence, 48 h; series mostly up to 57.5 µM; also: nearly all actives have a fitted effect of over 55% in size
In short: (§1)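 In this quantitative HTS, cell killing is estimated from loss of ATP-dependent luciferase light. Cells see five compound concentrations over a 48 h exposure.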

SKOV3 = assay: as above; conditions: Gynecologic cancer cell panel viability, ATPlite luminescence, 48 h; series mostly up to 57.5 µM
In short: as §1

Tov-21-G = assay: as above; conditions: Gynecologic cancer cell panel viability, ATPlite luminescence, 48 h; series mostly up to 57.5 µM
In short: as §1

HeLa = assay: as above; conditions: Gynecologic cancer cell panel viability, ATPlite luminescence, 48 h; series mostly up to 57.5 µM
In short: as §1

Hek293T = assay: as above; conditions: Gynecologic cancer cell panel viability, ATPlite luminescence, 48 h, control line for the selectivity index; series mostly up to 57.5 µM
In short: as §1

JEG-3 = assay: as above; conditions: Gynecologic cancer cell panel viability, ATPlite luminescence, 48 h; series mostly up to 57.5 µM
In short: as §1

OV90 = assay: as above; conditions: Gynecologic cancer cell panel viability, ATPlite luminescence, 48 h; series mostly up to 57.5 µM
In short: as §1

PA-1 = assay: as above; conditions: Gynecologic cancer cell panel viability, ATPlite luminescence, 48 h; series mostly up to 57.5 µM
In short: as §1

[1] = Drug repurposing screens with cells derived from glioblastoma tumor samples (AID 1345199); conditions: GBM patient neurospheres viability, ATP luminescence, 48 h; Potency: tumour line A unless noted; series mostly up to 46 µM; also: nearly all actives have a fitted effect of over 40% in size
In short: (§2)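 Primary testing used CD133+ neurospheres from four GBM patients, seven concentrations, 48 h exposure and ATP-based viability; confirmation added three slower-growing patient lines.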

astro = assay: as above; conditions: viability, ATP luminescence, 48 h; series mostly up to 45.9 µM
In short: as §2

Tov112D = assay: Primary qHTS to identify gynecologic anti-cancer compounds using libraries of approved drugs and bioactive compounds (AID 1345084); conditions: Gynecologic cancer cell panel viability, ATPlite luminescence, 48 h; series mostly up to 57.5 µM; also: nearly all actives have a fitted effect of over 55% in size
In short: as §1
Potency is read from the fitted curve at half-maximal effect; tags tell the direction and shape of the fitted curve.

N#CC[C@H](C1CCCC1)n1cc(-c2ncnc3[nH]ccc23)cn1
Potency (Es-2): inconclusive: 31.6 µM [cytotoxic, single point] | Potency (SKOV3): inconclusive: 39.8 µM [cytotoxic, single point] | Potency (Tov-21-G): inconclusive: 35.5 µM [cytotoxic, partial curve, poor fit]

Cc1ccc(Nc2nccc(N(C)c3ccc4c(C)n(C)nc4c3)n2)cc1S(N)(=O)=O
Potency (HeLa): inconclusive: 7.94 µM [cytotoxic, full curve, poor fit] and inconclusive: 17.8 µM [cytotoxic, partial curve, poor fit] | Potency (Hek293T): inconclusive: 31.6 µM [cytotoxic, single point] | Potency (JEG-3): inconclusive: 25.1 µM [cytotoxic, single point] and inactive | Potency (OV90): inconclusive: 39.8 µM [cytotoxic, single point] and inconclusive: 31.6 µM [cytotoxic, single point] | Potency (PA-1): inconclusive: 39.8 µM [cytotoxic, single point] and inactive | Potency (SKOV3): inconclusive: 39.8 µM [cytotoxic, single point] and active: 14.1 µM | Potency (Tov-21-G): inconclusive: 28.2 µM [cytotoxic, single point] and inconclusive: 39.8 µM [cytotoxic, single point] | Potency [1]: active: 2.51 µM | Potency (astro): inconclusive: 1.58 µM [inhibitor, full curve]

COc1ccc2c(c1)c(CC(=O)O)c(C)n2C(=O)c1ccc(Cl)cc1
Potency (Es-2): inactive | Potency (OV90): inconclusive: 1.12 µM [cytotoxic, single point] | Potency [1]: inactive

CC[C@H](C)C(=O)O[C@H]1C[C@@H](C)C=C2C=C[C@H](C)[C@H](CC[C@@H]3C[C@@H](O)CC(=O)O3)[C@H]21
Potency (Es-2): inconclusive: 17.8 µM [cytotoxic, single point] | Potency (HeLa): inconclusive: 39.8 µM [cytotoxic, single point] and inconclusive: 10 µM [cytotoxic, single point] | Potency (SKOV3): inactive

CC(=O)Nc1cccc(-n2c(=O)n(C3CC3)c(=O)c3c(Nc4ccc(I)cc4F)n(C)c(=O)c(C)c32)c1
Potency (Es-2): inconclusive: 3.98 µM [cytotoxic, full curve, poor fit] | Potency (OV90): inconclusive: 0.501 µM

CC1(O)CC(c2nc(-c3ccc4ccc(-c5ccccc5)nc4c3)c3c(N)nccn23)C1 (configuration not stated)
Potency (HeLa): inconclusive: 1 µM [cytotoxic, full curve, poor fit] | Potency (SKOV3): inactive

CCOc1cc(C(=O)Nc2ccc(Cl)c(-c3nc4ccccc4[nH]3)c2)cc(OCC)c1OCC
Potency (Hek293T): inactive | Potency (SKOV3): inconclusive: 10 µM [cytotoxic, partial curve]

Cc1cccc(N(C)C(=S)Oc2ccc3ccccc3c2)c1
Potency (JEG-3): inconclusive: 25.1 µM [cytotoxic, single point] | Potency (Tov112D): inactive | Potency [1]: inconclusive: 12.6 µM [inhibitor, single point]

Cc1c(C(=O)NN2CCCCC2)nn(-c2ccc(Cl)cc2Cl)c1-c1ccc(Cl)cc1
Potency (Hek293T): inconclusive: 31.6 µM [cytotoxic, single point] | Potency (OV90): inactive | Potency (Tov-21-G): inactive | Potency [1]: active: 5.01 µM | Potency (astro): active: 35.5 µM

CC(C)c1noc(N2CCC(COc3ccc(-c4ccc(S(C)(=O)=O)cc4)nc3)CC2)n1
Potency (Hek293T): inconclusive: 28.2 µM [cytotoxic, single point]

Nc1c2c(nc3ccccc13)CCCC2
Potency (JEG-3): inactive | Potency (SKOV3): inconclusive: 7.08 µM [cytotoxic, single point]

CCN(CC)Cc1ccc2cc(COC(=O)Nc3ccc(C(=O)NO)cc3)ccc2c1
Potency (HeLa): active: 6.31 µM | Potency (Hek293T): active: 10 µM | Potency (JEG-3): active: 3.55 µM | Potency (OV90): active: 1 µM | Potency (SKOV3): inconclusive: 3.98 µM [cytotoxic, full curve, poor fit] | Potency (Tov112D): active: 7.08 µM

CCc1ccc(CCOc2ccc(CC3SC(=O)NC3=O)cc2)nc1 (configuration not stated)
Potency (HeLa): inactive | Potency (astro): inconclusive: 35.5 µM [inhibitor, partial curve]

Cc1cn(-c2cc(NC(=O)c3ccc(C)c(Nc4nccc(-c5cccnc5)n4)c3)cc(C(F)(F)F)c2)cn1
Potency (HeLa): inactive | Potency (PA-1): active: 12.6 µM | Potency (SKOV3): inconclusive: 39.8 µM [rising, partial curve, poor fit]

CCc1cccc2c3c([nH]c12)C(CC)(CC(=O)O)OCC3 (configuration not stated)
Potency (Hek293T): inactive | Potency (PA-1): inactive

Cn1cnc(-c2cc3nccc(Oc4ccc(NC(=S)NC(=O)Cc5ccccc5)cc4F)c3s2)c1
Potency (HeLa): inconclusive: 35.5 µM [cytotoxic, single point] | Potency (PA-1): inconclusive: 14.1 µM [cytotoxic, partial curve] | Potency (SKOV3): inconclusive: 39.8 µM [cytotoxic, single point] | Potency (Tov-21-G): inconclusive: 35.5 µM [cytotoxic, single point] | Potency (Tov112D): inconclusive: 31.6 µM [cytotoxic, single point]

O=P(O)(O)C(O)(Cc1cccnc1)P(=O)(O)O
Potency (Hek293T): inconclusive: 39.8 µM [cytotoxic, partial curve, poor fit] | Potency (OV90): inactive | Potency [1]: inconclusive: 31.6 µM [inhibitor, partial curve] | Potency (astro): inactive
